Publication PMC4336329 (PLoS ONE, 2015)
About 2,200 (0.71%) of roughly 310,000 compounds showed an effect of 50% or more. The effect is printed as a negative number. This is one part of the list.

Molecular target: human ether-à-go-go-related gene (hERG) potassium channel (human, UniProt Q12809)
Assay: primary screen, population patch clamp on CHO cells stably expressing hERG

Sequence of human ether-à-go-go-related gene (hERG) potassium channel (Q12809 whole entry, looked up): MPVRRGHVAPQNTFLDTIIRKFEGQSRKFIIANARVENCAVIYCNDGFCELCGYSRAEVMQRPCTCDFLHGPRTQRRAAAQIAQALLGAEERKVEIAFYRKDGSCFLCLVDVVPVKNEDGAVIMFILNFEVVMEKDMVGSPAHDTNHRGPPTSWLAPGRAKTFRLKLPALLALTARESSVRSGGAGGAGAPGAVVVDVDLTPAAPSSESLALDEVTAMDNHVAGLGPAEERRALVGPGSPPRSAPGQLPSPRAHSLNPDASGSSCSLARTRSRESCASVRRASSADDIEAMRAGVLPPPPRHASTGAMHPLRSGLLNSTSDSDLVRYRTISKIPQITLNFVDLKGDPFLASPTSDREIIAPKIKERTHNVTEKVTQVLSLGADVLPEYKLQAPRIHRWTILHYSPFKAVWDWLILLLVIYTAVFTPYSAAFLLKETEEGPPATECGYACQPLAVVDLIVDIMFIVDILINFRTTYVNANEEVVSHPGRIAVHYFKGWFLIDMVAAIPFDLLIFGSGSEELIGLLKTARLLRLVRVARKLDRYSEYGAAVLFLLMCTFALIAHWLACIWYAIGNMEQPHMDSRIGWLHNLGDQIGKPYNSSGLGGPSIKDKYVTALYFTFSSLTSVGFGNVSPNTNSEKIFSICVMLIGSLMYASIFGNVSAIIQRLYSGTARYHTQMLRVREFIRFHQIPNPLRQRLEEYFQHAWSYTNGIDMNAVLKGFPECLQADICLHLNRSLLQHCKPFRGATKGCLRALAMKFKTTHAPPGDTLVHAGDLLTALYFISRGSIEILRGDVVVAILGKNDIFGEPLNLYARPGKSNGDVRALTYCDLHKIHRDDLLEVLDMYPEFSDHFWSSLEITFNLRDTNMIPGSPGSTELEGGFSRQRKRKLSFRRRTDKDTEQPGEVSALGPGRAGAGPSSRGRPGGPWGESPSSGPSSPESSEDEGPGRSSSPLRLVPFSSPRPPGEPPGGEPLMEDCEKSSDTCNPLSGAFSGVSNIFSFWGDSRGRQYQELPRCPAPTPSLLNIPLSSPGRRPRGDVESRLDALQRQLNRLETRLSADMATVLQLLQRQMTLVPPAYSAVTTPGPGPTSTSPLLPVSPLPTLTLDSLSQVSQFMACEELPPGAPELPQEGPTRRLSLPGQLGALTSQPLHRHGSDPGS

| SMILES | hERG current change (%, negative = inhibition) at 1uM |
| --- | --- |
| C=CCOCCN1C(=O)C2C3C=CC(C2C1=O)C1C2C(=O)N(CCOCC=C)C(=O)C2C31 (stereo not shown) | -13.4% |
| Cc1cc(C)c(NC(=O)Nc2ccc3c(c2)OCO3)c(C)c1 | 9.38% |
| CN(C)CCc1c[nH]c2ccc(Cn3cncn3)cc12.O=C(O)c1ccccc1 | 0.541% |
| CC(CC(=O)N(C)c1c(N)n(Cc2ccccc2)c(=O)[nH]c1=O)c1ccccc1 (stereo not shown) | -8.15% |
| CCOC(=O)c1[nH]c(C)c(CCC(=O)OC)c1C | 14% |
| O=C(CSc1nc2ccccc2c(=O)[nH]1)Nc1cccc([N+](=O)[O-])c1 | 12% |
| CN(Cc1cc(-c2ccccc2)on1)C(=O)c1cc(COc2c(F)cccc2F)on1 | 5.58% |
| NCCc1nc2ccccc2s1 | 15.1% |
| COc1cc(C)c(NC(=O)COc2ccc3c(c2)OCO3)cc1C | 14.4% |
| CC(C)(C)NC(=O)c1ccc2c(c1)C(=O)N(Cc1ccco1)C2=O | 10.3% |
| Cc1cc(C)c(C#N)c(SCC(=O)NC2CC2)n1 | 6.56% |
| Cc1cc(C)n(-c2nc(C)nc3sc4c(c23)CCC(C)C4)n1 (stereo not shown) | 1.17% |
| C=CCn1c(CSc2nc3ccccc3s2)nnc1SCC(=O)NCc1ccccc1 | 7.27% |
| O=C(O)c1cc(-c2ccc(/C=N/N3C(=O)C4C5C=CC(C6CC56)C4C3=O)o2)ccc1Cl (stereo not shown) | 13.2% |
| COc1ccc(-c2cc3ccc(OCC(=O)NCC4CCC(C(=O)O)CC4)cc3oc2=O)cc1 (stereo not shown) | 5.49% |
| CCOC(=O)c1sc(NC(=O)COC(=O)Cn2cnc3ccccc32)c(C(=O)OCC)c1C | 10.2% |
| Cc1nnc(NC(=O)c2cccc(S(=O)(=O)N3CCOCC3)c2)s1 | 12.6% |
| O=C(OCC(=O)N1CCc2ccccc21)c1cccnc1Cl | 9.81% |
| COC(=O)c1c(C)oc(C)c1S(=O)(=O)NC(C)(C)C | 7.83% |
| COc1ccc(C(C)=O)cc1COc1ccc(Cl)cc1Cl | 7.9% |
| C=CCc1cc(Cl)ccc1OCCOCCNC(C)(C)C.O=C(O)C(=O)O | -1.74% |
| Cc1c(C)c2ccc(OCC(=O)N3CCC(C(=O)O)(c4ccccc4)CC3)c(C)c2oc1=O | 11.8% |

| SMILES | hERG current change (%, negative = inhibition) at 1uM |
| --- | --- |
| CSc1ccccc1OCc1cc(C(=O)N2CCc3c(Cl)cccc3C2)no1 | 7.75% |
| C=CCn1cc(C(=O)N2CCN(C)CC2)c(=O)c2cc(S(=O)(=O)N3CCCC3)ccc21 | 8.25% |
| c1cnc2nc(CSc3ncn[nH]3)cn2c1 | 2.33% |
| Brc1cccc(CN2CCN(c3ncccn3)CC2)c1 | 14.6% |
| Nc1ccc2c(c1)ncn2CCCn1cnc2cc(N)ccc21 | 7.62% |
| O=C(NCC(c1ccco1)N1CCc2ccccc2C1)C(=O)Nc1ccccc1F (stereo not shown) | 4.26% |
| CCCCN(C)S(=O)(=O)c1cc(Br)cc2c1N(C(=O)C1CC1)CC2 | 1.09% |
| CCc1nnc(NS(=O)(=O)c2ccc(NC(=O)c3cccc4ccccc34)cc2)s1 | 9.41% |
| Cc1cnc(C(=O)OCc2csc(CC(=O)Nc3ccccc3C)n2)cn1 | 8.06% |
| CCc1ccc(/C=N/NC(=O)c2c[nH]c3ccccc23)s1 | -0.276% |
| O=C1NC(=O)[C@]2(Cc3ccccc3N3CCN(c4ccccc4)CC32)C(=O)N1Cc1ccccc1 (stereo partly shown) | 3.67% |
| Cc1c(/C=C/C(=O)c2cccs2)cnn1C | 11.5% |
| Nc1cccc2c1C(=O)N(C(=O)c1cccc(S(=O)(=O)N3CCCCCC3)c1)C2=O | -8.06% |
| Cc1cc(C)c(O)c(C2(O)C(=O)c3ccccc3C2=O)c1 | 13.5% |
| O=C(CN1CCOCC1)Nc1ccc(NC(=O)c2ccccc2F)cc1 | 12% |
| O=C(Cc1ccccc1F)Nc1ccc2c(c1)CCC2 | 16% |
| CCC1(CC)NC(=O)N(CC(=O)OCC(=O)Nc2ccc(OC(F)(F)F)cc2)C1=O | -1.24% |
| O=C1CC(c2ccccc2)CN1C(=O)c1cccc([N+](=O)[O-])c1 (stereo not shown) | 0.412% |
| COc1cccc(CNCc2cc(OC)cc(OC)c2)c1.O=C(O)C(=O)O | 0.211% |
| O=S(=O)(c1ccc(F)cc1)c1nc(-c2ccco2)oc1Nc1ccc(F)cc1 | -1.69% |
| COc1ccc(CC2C(=O)N(C)C(=O)N(C)C2=O)c(OC)c1 | 13.8% |
| CN1CCN(c2ccc(C(F)(F)F)cc2NC(=O)Nc2ccccc2)CC1 | 10.8% |

| SMILES | hERG current change (%, negative = inhibition) at 1uM |
| --- | --- |
| O=C(O)COc1ccccc1/C=C1\SC(=S)N(c2cccnc2)C1=O | 2.48% |
| Cc1ccc(-c2nnc3sc(CCc4ccccc4)nn23)cc1 | 11.1% |
| COc1ccc(CCN2C(=O)C3C4C=CC(C3C2=O)C2C(=O)N(CCc3ccc(OC)c(OC)c3)C(=O)C42)cc1OC (stereo not shown) | -6.83% |
| COc1ccc(C(CCN2CCCC(C)C2)c2c(OC)cc(OC)c3c(C)cc(=O)oc23)cc1 (stereo not shown) | -21.6% |
| O=C(O)CCc1nc2cc(Cl)ccc2n(Cc2ccccc2)c1=O | 15.5% |
| COc1cccc(NC(=O)CN(C)C(=O)c2ccc(NS(=O)(=O)c3ccc(F)cc3)cc2)c1 | 10.7% |
| CCc1ccc(C2=NNC(=Nc3c(C)n(C)n(-c4ccccc4)c3=O)SC2)cc1 | 28.1% |
| O=C(CN1C(=O)c2ccccc2C1=O)OCC(=O)N1CCc2ccccc2C1 | 2.71% |
| C=CCNc1nc2c(c(=O)[nH]c(=O)n2C)n1CCOc1ccccc1 | 9.4% |
| CCc1nc(NCCC(C)C)c(C#N)c2c1CCCC2 | 22.5% |
| Cc1c(Cl)cccc1NC(=S)NCC1COc2ccccc2O1 (stereo not shown) | 13.1% |
| COc1ccc(OC)c2sc(NC(=O)C3CC3)nc12 | 2.09% |
| N#Cc1ccc(C2=CC(=O)C[C@H](c3ccc(Cl)cc3)C2)cc1 | -51.9% |
| CCOC(=O)Cn1c(=NC(=O)c2cccs2)sc2cc(C(=O)OC)ccc21 | 0.0979% |
| Cc1[nH]c2ccccc2c1-c1nc(N)sc1C | 16.1% |
| CCOc1ccc(C(=O)NC2CCN(C(=O)N3CCCC3)CC2)cc1 | 11.4% |
| Cc1ccc(N(CC(=O)N2CCCCCC2)S(C)(=O)=O)cc1Cl | 13.7% |
| CCOC(=O)C1CCCN(C(=O)/C=C/c2ccc(Cl)cc2)C1 (stereo not shown) | -26.1% |
| CCCOc1ccc(CSc2ncn[nH]2)cc1 | -1.78% |
| O=C(c1cccc(NS(=O)(=O)c2cccc(F)c2)c1)N1CCN(c2ccccc2)CC1 | 6.34% |
| COc1ccc(S(=O)(=O)NN(C)C(=O)c2nn(-c3ccccc3)ccc2=O)cc1 | -9.21% |
| COc1ccccc1-n1nnnc1SCc1ccccc1 | 2.91% |

| SMILES | hERG current change (%, negative = inhibition) at 1uM |
| --- | --- |
| C1CCN(c2nc3nonc3nc2N2CCCCC2)CC1 | -1.13% |
| COC(=O)C1=C(C(=O)OC)[C@@H]2N(C)c3ccccc3[C@@]23C[C@@H](C(=O)OC)N(C(C)=O)C3=N1 | 7.59% |
| COC(=O)c1ccc(OC(=O)CCc2cc(OC)c(OC)c(OC)c2)cc1 | 7.71% |
| Cc1c(C2(O)C(=O)Nc3ccc(F)cc32)c(=O)n(-c2ccccc2)n1C (stereo not shown) | 5.04% |
| O=c1[nH]c(C2CCN(S(=O)(=O)c3ccc([N+](=O)[O-])cc3)CC2)nc2c1nnn2Cc1ccccc1 | 15.8% |
| O=C(CCNC(=O)c1ccco1)Nc1ccc(N2CCOCC2)cc1 | 11.3% |
| COc1cc(/C=C/C(=O)C2C(=O)C=C(C)OC2=O)cc(OC)c1O (stereo not shown) | 13.5% |
| CC(=O)Nc1ccc(S(=O)(=O)NC2(C(F)(F)F)C(=O)Nc3c2c(=O)[nH]c(=O)n3C)cc1 (stereo not shown) | 4.78% |
| O=C(COc1ccc(Cl)cc1)Nc1cccc(S(=O)(=O)NCc2ccco2)c1 | 5.13% |
| COCCCNc1nc2ccccc2nc1NS(=O)(=O)c1ccc(C)c(C)c1 | -1.92% |
| COc1cc(/C=N/NS(=O)(=O)c2ccc(C(C)(C)C)cc2)cc([N+](=O)[O-])c1O | 13.6% |
| CCCCN(C)C(=O)c1nc2ccccn2c1CN(C)Cc1csc(C)n1 | 11.5% |
| O=C(C1CCCN(S(=O)(=O)c2ccc(Br)s2)C1)N1CCN(c2ccccc2)CC1 (stereo not shown) | -24.3% |
| C[C@@H](O)C1NC(=O)[C@H](CCCCN)NC(=O)c2cc([N+](=O)[O-])cc(F)c2NCCCC[C@@H](C(N)=O)NC1=O (stereo partly shown) | 10.8% |
| NC(=O)c1sc2nc(-c3cccnc3)ccc2c1N | 15.8% |
| COc1cc(C(=O)Nc2nc3ccc4nc(C)sc4c3s2)cc(OC)c1OC | 4.84% |
| COc1ccc(NS(=O)(=O)c2ccc(C)c(C(=O)NCC(c3ccco3)N3CCCCC3)c2)cc1 (stereo not shown) | 8.71% |
| Cc1cccc(N2C(=O)NC(=O)/C(=C\c3ccc4c(c3)CCCN4Cc3ccccc3)C2=O)c1 | 12.3% |
| CCn1c(=O)n(CC)c2cc(NC(=O)C(C)c3ccccc3)c(Br)cc21 (stereo not shown) | 15.2% |
